Experimental findings from the supplement of paper PMC10369915 are described below.

The other results are listed elsewhere or left out. No stated cut-off is given here; in the data, active = 3.2 or more and inactive = the rest. The signal is at background level for most entries.
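Further: displayed peptides selected on beads carrying the immobilized SH2 domain, with library peptides lacking any tyrosine serving as negative controls.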

The first assay addresses SHP2 C-SH2 domain E139D. As to the kind of experiment: enrichment score (SH2-bound / input frequency) (ratio); bacterial display of known human phosphotyrosine sites (pTyr-Var adds point mutants) read by sequencing; higher = stronger binding; tyrosines were phosphorylated by kinases first. The note with it: peptide library: Human pTyr.
In the case of VETELQTYKHSRQGL [RUFY2_HUMAN_336], the enrichment score is inactive: 0.601.
Regarding MPKFACDYCDTALTH [RU1C_HUMAN_8_YA], the enrichment score is inactive: 0.682.
As to SPTEPKNYGSYSTQA [SCAM3_HUMAN_83], the enrichment score is inactive: 0.827.
As for EPPDHQYYNDFPGKE [SHC1_HUMAN_350], the enrichment score is inactive: 0.84.
On to VEGHHTIYIGVHVPK [S4A4_HUMAN_30], for which the enrichment score was inactive: 1.38.
As to TKVELETYKQTRQGL [RUFY1_HUMAN_389], the enrichment score was inactive: 0.709.
On to IPHDGNLYPRLYPEL [SDCB1_HUMAN_46], for which the enrichment score was inactive: 0.667.
With ARAVENQYSFYGGGG [SH2B2_HUMAN_629], the enrichment score is inactive: 0.876.
Turning to VTEEPEIYEPNFIFF [SF3B2_HUMAN_379], the enrichment score was inactive: 1.62.
KPSIVTKYVESDDEK [ATRX_HUMAN_89]: the enrichment score is inactive: 1.39.
The same measure, in the same setting: then AIEPEDDYDDVEIPA [SCIMP_HUMAN_131_YA], with inactive: 1.4; and MPKFYCDYCDTYLTH [RU1C_HUMAN_8], with inactive: 1.35; and GEAPSNIYVEVEDEG [SH2D2A_HUMAN_305], with inactive: 1.52.
Take VHPLSAPYPPLDTPE [SH2B1_HUMAN_494]: the enrichment score was inactive: 0.733.
EEPPDHQYYNDFPGK [SHC1_HUMAN_349]: the enrichment score was inactive: 0.856.
As for TEEQKKYYNAMKKLG [SCN5A_HUMAN_1495], the enrichment score is inactive: 1.27.
Turning to VAHHGGLYHTNAEVK [SH2D3_HUMAN_793], the enrichment score is inactive: 1.02.
Still for that read-out and setting: in the case of DPTIEDSYTKICSVD [RRAS_HUMAN_66] it was inactive: 1.06.

The next assay concerns the target SHP2 C-SH2 domain wild-type. The assay is described as above. The note with it: peptide library: Human pTyr.
As for VETELQTYKHSRQGL [RUFY2_HUMAN_336], the enrichment score was inactive: 0.583.
In the case of MPKFACDYCDTALTH [RU1C_HUMAN_8_YA], the enrichment score is inactive: 0.711.
As to SPTEPKNYGSYSTQA [SCAM3_HUMAN_83], the enrichment score was inactive: 0.591.
Turning to EPPDHQYYNDFPGKE [SHC1_HUMAN_350], the enrichment score is inactive: 0.772.
As for VEGHHTIYIGVHVPK [S4A4_HUMAN_30], the enrichment score is inactive: 1.53.
For TKVELETYKQTRQGL [RUFY1_HUMAN_389], the enrichment score is inactive: 0.72.
IPHDGNLYPRLYPEL [SDCB1_HUMAN_46]: the enrichment score is inactive: 0.56.
For the molecule ARAVENQYSFYGGGG [SH2B2_HUMAN_629], the enrichment score was inactive: 0.62.
For VTEEPEIYEPNFIFF [SF3B2_HUMAN_379], the enrichment score was inactive: 1.83.
For the molecule KPSIVTKYVESDDEK [ATRX_HUMAN_89], the enrichment score was inactive: 1.18.
AIEPEDDYDDVEIPA [SCIMP_HUMAN_131_YA]: the enrichment score is inactive: 1.26.
Take MPKFYCDYCDTYLTH [RU1C_HUMAN_8]: the enrichment score was inactive: 1.27.
For the molecule GEAPSNIYVEVEDEG [SH2D2A_HUMAN_305], the enrichment score was inactive: 1.1.
Still for that read-out and setting: in the case of VHPLSAPYPPLDTPE [SH2B1_HUMAN_494] it was inactive: 0.584; in that of EEPPDHQYYNDFPGK [SHC1_HUMAN_349], inactive: 0.911.
In the case of TEEQKKYYNAMKKLG [SCN5A_HUMAN_1495], the enrichment score was inactive: 0.852.
With VAHHGGLYHTNAEVK [SH2D3_HUMAN_793], the enrichment score is inactive: 0.911.
Regarding DPTIEDSYTKICSVD [RRAS_HUMAN_66], the enrichment score was inactive: 0.819.

The next assay has as its target SHP2 N-SH2 domain L43F. Described as above. The note with it: peptide library: Human pTyr.
VETELQTYKHSRQGL [RUFY2_HUMAN_336]: the enrichment score is inactive: 0.721.
In the case of MPKFACDYCDTALTH [RU1C_HUMAN_8_YA], the enrichment score is inactive: 0.491.
On to SPTEPKNYGSYSTQA [SCAM3_HUMAN_83], for which the enrichment score is inactive: 0.525.
Regarding EPPDHQYYNDFPGKE [SHC1_HUMAN_350], the enrichment score was inactive: 0.879.
Regarding VEGHHTIYIGVHVPK [S4A4_HUMAN_30], the enrichment score is inactive: 1.82.
Regarding TKVELETYKQTRQGL [RUFY1_HUMAN_389], the enrichment score was inactive: 0.714.
Take IPHDGNLYPRLYPEL [SDCB1_HUMAN_46]: the enrichment score is inactive: 0.548.
Consider ARAVENQYSFYGGGG [SH2B2_HUMAN_629], for which the enrichment score was inactive: 0.678.
Still for that read-out and setting: then VTEEPEIYEPNFIFF [SF3B2_HUMAN_379], with inactive: 1.29; and KPSIVTKYVESDDEK [ATRX_HUMAN_89], with inactive: 1.14.
For AIEPEDDYDDVEIPA [SCIMP_HUMAN_131_YA], the enrichment score was inactive: 1.19.
Take MPKFYCDYCDTYLTH [RU1C_HUMAN_8]: the enrichment score was inactive: 1.21.
Consider GEAPSNIYVEVEDEG [SH2D2A_HUMAN_305], for which the enrichment score is inactive: 1.02.
Turning to VHPLSAPYPPLDTPE [SH2B1_HUMAN_494], the enrichment score is inactive: 0.707.
EEPPDHQYYNDFPGK [SHC1_HUMAN_349]: the enrichment score was inactive: 0.911.
Same read-out and setting: then TEEQKKYYNAMKKLG [SCN5A_HUMAN_1495], with inactive: 0.995; and VAHHGGLYHTNAEVK [SH2D3_HUMAN_793], with inactive: 0.904.
Still for that read-out and setting: in the case of DPTIEDSYTKICSVD [RRAS_HUMAN_66] it was inactive: 0.938.

The target in the next assay is SHP2 N-SH2 domain T42A. Described as above. The note with it: peptide library: Human pTyr.
Turning to VETELQTYKHSRQGL [RUFY2_HUMAN_336], the enrichment score is inactive: 0.57.
As to MPKFACDYCDTALTH [RU1C_HUMAN_8_YA], the enrichment score was inactive: 0.645.
For the molecule SPTEPKNYGSYSTQA [SCAM3_HUMAN_83], the enrichment score is inactive: 0.673.
Consider EPPDHQYYNDFPGKE [SHC1_HUMAN_350], for which the enrichment score is inactive: 0.766.
With VEGHHTIYIGVHVPK [S4A4_HUMAN_30], the enrichment score was inactive: 1.34.
In the case of TKVELETYKQTRQGL [RUFY1_HUMAN_389], the enrichment score is inactive: 0.741.
Still for that read-out and setting: then IPHDGNLYPRLYPEL [SDCB1_HUMAN_46], with inactive: 0.6.
Regarding ARAVENQYSFYGGGG [SH2B2_HUMAN_629], the enrichment score was inactive: 0.573.
As to VTEEPEIYEPNFIFF [SF3B2_HUMAN_379], the enrichment score is inactive: 1.49.
Regarding KPSIVTKYVESDDEK [ATRX_HUMAN_89], the enrichment score is inactive: 1.3.
Consider AIEPEDDYDDVEIPA [SCIMP_HUMAN_131_YA], for which the enrichment score was inactive: 1.12.
For MPKFYCDYCDTYLTH [RU1C_HUMAN_8], the enrichment score is inactive: 1.32.
As for GEAPSNIYVEVEDEG [SH2D2A_HUMAN_305], the enrichment score was inactive: 1.24.
Same read-out and setting: in the case of VHPLSAPYPPLDTPE [SH2B1_HUMAN_494] it was inactive: 0.623; in that of EEPPDHQYYNDFPGK [SHC1_HUMAN_349], inactive: 1.01; in that of TEEQKKYYNAMKKLG [SCN5A_HUMAN_1495], inactive: 0.764.
In the case of VAHHGGLYHTNAEVK [SH2D3_HUMAN_793], the enrichment score is inactive: 0.988.
Regarding DPTIEDSYTKICSVD [RRAS_HUMAN_66], the enrichment score was inactive: 0.738.

In another assay the target is SHP2 N-SH2 domain T52S. Described as above. The note with it: peptide library: Human pTyr.
In the case of VETELQTYKHSRQGL [RUFY2_HUMAN_336], the enrichment score was inactive: 0.566.
Consider MPKFACDYCDTALTH [RU1C_HUMAN_8_YA], for which the enrichment score was inactive: 0.703.
Regarding SPTEPKNYGSYSTQA [SCAM3_HUMAN_83], the enrichment score is inactive: 0.555.
On the same count and under the same terms, in the case of EPPDHQYYNDFPGKE [SHC1_HUMAN_350] it was inactive: 0.813; in that of VEGHHTIYIGVHVPK [S4A4_HUMAN_30], inactive: 1.52.
Consider TKVELETYKQTRQGL [RUFY1_HUMAN_389], for which the enrichment score was inactive: 0.665.
For the molecule IPHDGNLYPRLYPEL [SDCB1_HUMAN_46], the enrichment score is inactive: 0.569.
Consider ARAVENQYSFYGGGG [SH2B2_HUMAN_629], for which the enrichment score was inactive: 0.624.
VTEEPEIYEPNFIFF [SF3B2_HUMAN_379]: the enrichment score was inactive: 1.94.
Turning to KPSIVTKYVESDDEK [ATRX_HUMAN_89], the enrichment score was inactive: 1.44.
For the molecule AIEPEDDYDDVEIPA [SCIMP_HUMAN_131_YA], the enrichment score is inactive: 1.41.
In the case of MPKFYCDYCDTYLTH [RU1C_HUMAN_8], the enrichment score was inactive: 1.34.
With GEAPSNIYVEVEDEG [SH2D2A_HUMAN_305], the enrichment score is inactive: 1.44.
In the case of VHPLSAPYPPLDTPE [SH2B1_HUMAN_494], the enrichment score is inactive: 0.757.
Regarding EEPPDHQYYNDFPGK [SHC1_HUMAN_349], the enrichment score is inactive: 0.874.
On to TEEQKKYYNAMKKLG [SCN5A_HUMAN_1495], for which the enrichment score was inactive: 1.11.
The same measure, in the same setting: in the case of VAHHGGLYHTNAEVK [SH2D3_HUMAN_793] it was inactive: 1; in that of DPTIEDSYTKICSVD [RRAS_HUMAN_66], inactive: 0.921.

The target of the next assay is SHP2 N-SH2 domain wild-type. Described as above. The note with it: peptide library: Human pTyr.
Consider VETELQTYKHSRQGL [RUFY2_HUMAN_336], for which the enrichment score is inactive: 0.587.
With MPKFACDYCDTALTH [RU1C_HUMAN_8_YA], the enrichment score is inactive: 0.821.
The same measure, in the same setting: then SPTEPKNYGSYSTQA [SCAM3_HUMAN_83], with inactive: 0.733; and EPPDHQYYNDFPGKE [SHC1_HUMAN_350], with inactive: 0.992; and VEGHHTIYIGVHVPK [S4A4_HUMAN_30], with inactive: 1.35.
Take TKVELETYKQTRQGL [RUFY1_HUMAN_389]: the enrichment score was inactive: 1.13.
Turning to IPHDGNLYPRLYPEL [SDCB1_HUMAN_46], the enrichment score is inactive: 0.662.
As for ARAVENQYSFYGGGG [SH2B2_HUMAN_629], the enrichment score is inactive: 0.601.
For the molecule VTEEPEIYEPNFIFF [SF3B2_HUMAN_379], the enrichment score is inactive: 2.22.
For KPSIVTKYVESDDEK [ATRX_HUMAN_89], the enrichment score is inactive: 1.4.
On the same count and under the same terms, then AIEPEDDYDDVEIPA [SCIMP_HUMAN_131_YA], with inactive: 1.15.
As for MPKFYCDYCDTYLTH [RU1C_HUMAN_8], the enrichment score was inactive: 1.47.
In the case of GEAPSNIYVEVEDEG [SH2D2A_HUMAN_305], the enrichment score was inactive: 1.34.
On the same count and under the same terms, in the case of VHPLSAPYPPLDTPE [SH2B1_HUMAN_494] it was inactive: 1.04; in that of EEPPDHQYYNDFPGK [SHC1_HUMAN_349], inactive: 1.14; in that of TEEQKKYYNAMKKLG [SCN5A_HUMAN_1495], inactive: 0.778.
As to VAHHGGLYHTNAEVK [SH2D3_HUMAN_793], the enrichment score is inactive: 1.01.
Still for that read-out and setting: then DPTIEDSYTKICSVD [RRAS_HUMAN_66], with inactive: 0.944.
